Data as given in the supplement of paper PMC11876631.
± gives the standard deviation of the averaged measurements. Laboratory Escherichia coli strains with one amino-acid change in an essential protein, pooled on minimal glucose agar with carbenicillin or gentamicin at twice the control MIC (plus kanamycin and chloramphenicol for the plasmids), 48 h. Fold change of barcode share against drug-free plates; higher = less susceptible. Active = above 20 in both replicates (the paper's putatively resistant). '<' = one read or none on drug, '>' = one read or none on a drug-free plate. Shares are relative, so most strains fall below 1 when a few take over. Listed are strains with at least 15 reads on both drug-free plates, and hits; most hits rest on fewer reference reads. Replicate rank correlation about 0.5. Edits are read from barcodes.

Target: Escherichia coli (laboratory strain)
Experiment: barcode share on antibiotic plates over drug-free plates; higher = less susceptible
Method: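 A pool of E. coli strains, each edited to carry one amino-acid change in an essential protein, was grown for 48 h on minimal glucose agar with or without antibiotic; strain barcodes were sequenced; mean of two replicates.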

[1] = antibiotic: carbenicillin, 2× MIC (3.1 µg/mL)
[2] = antibiotic: gentamicin, 2× MIC (MIC 0.45 µg/mL)

Protein	fold change of barcode share [1]	fold change of barcode share [2]
glnS I457D (protein) MSEAEARPTNFIRQIIDEDLASGKHTTVHTRFPPEPNGYLHIGHAKSICLNFGIAQDYKGQCNLRFDDTNPVKEDIEYVESIKNDVEWLGFHWSGNVRYSSDYFDQLHAYAIELINKGLAYVDELTPEQIREYRGTLTQPGKNSPYRDRSVEENLALFEKMRAGGFEEGKACLRAKIDMASPFIVMRDPVLYRIKFAEHHQTGNKWCIYPMYDFTHCISDALEGITHSLCTLEFQDNRRLYDWVLDNITIPVHPRQYEFSRLNLEYTVMSKRKLNLLVTDKHVEGWDDPRMPTISGLRRRGYTAASIREFCKRIGVTKQDNTIEMASLESCIREDLNENAPRAMAVIDPVKLVIENYQGEGEMVTMPNHPNKPEMGSRQVPFSGEIWIDRADFREEANKQYKRLVLGKEVRLRNAYVIKAERVEKDAEGNITTIFCTYDADTLSKDPADGRKVKGVDHWVSAAHALPVEIRLYDRLFSVPNPGAADDFLSVINPESLVIKQGFAEPSLKDAVAGKAFQFEREGYFCLDSRHSTAEKPVFNRTVGLRDTWAKVGE	0.486 ± 0.15	0.0121 ± 0.0074
glnS V460Q (protein) MSEAEARPTNFIRQIIDEDLASGKHTTVHTRFPPEPNGYLHIGHAKSICLNFGIAQDYKGQCNLRFDDTNPVKEDIEYVESIKNDVEWLGFHWSGNVRYSSDYFDQLHAYAIELINKGLAYVDELTPEQIREYRGTLTQPGKNSPYRDRSVEENLALFEKMRAGGFEEGKACLRAKIDMASPFIVMRDPVLYRIKFAEHHQTGNKWCIYPMYDFTHCISDALEGITHSLCTLEFQDNRRLYDWVLDNITIPVHPRQYEFSRLNLEYTVMSKRKLNLLVTDKHVEGWDDPRMPTISGLRRRGYTAASIREFCKRIGVTKQDNTIEMASLESCIREDLNENAPRAMAVIDPVKLVIENYQGEGEMVTMPNHPNKPEMGSRQVPFSGEIWIDRADFREEANKQYKRLVLGKEVRLRNAYVIKAERVEKDAEGNITTIFCTYDADTLSKDPADGRKVKGVIHWQSAAHALPVEIRLYDRLFSVPNPGAADDFLSVINPESLVIKQGFAEPSLKDAVAGKAFQFEREGYFCLDSRHSTAEKPVFNRTVGLRDTWAKVGE	1.04 ± 0.74	0.0482 ± 0.038
glnS V460A (protein) MSEAEARPTNFIRQIIDEDLASGKHTTVHTRFPPEPNGYLHIGHAKSICLNFGIAQDYKGQCNLRFDDTNPVKEDIEYVESIKNDVEWLGFHWSGNVRYSSDYFDQLHAYAIELINKGLAYVDELTPEQIREYRGTLTQPGKNSPYRDRSVEENLALFEKMRAGGFEEGKACLRAKIDMASPFIVMRDPVLYRIKFAEHHQTGNKWCIYPMYDFTHCISDALEGITHSLCTLEFQDNRRLYDWVLDNITIPVHPRQYEFSRLNLEYTVMSKRKLNLLVTDKHVEGWDDPRMPTISGLRRRGYTAASIREFCKRIGVTKQDNTIEMASLESCIREDLNENAPRAMAVIDPVKLVIENYQGEGEMVTMPNHPNKPEMGSRQVPFSGEIWIDRADFREEANKQYKRLVLGKEVRLRNAYVIKAERVEKDAEGNITTIFCTYDADTLSKDPADGRKVKGVIHWASAAHALPVEIRLYDRLFSVPNPGAADDFLSVINPESLVIKQGFAEPSLKDAVAGKAFQFEREGYFCLDSRHSTAEKPVFNRTVGLRDTWAKVGE	0.636 ± 0.16	0.00406 ± 0.0031
glnS I457P (protein) MSEAEARPTNFIRQIIDEDLASGKHTTVHTRFPPEPNGYLHIGHAKSICLNFGIAQDYKGQCNLRFDDTNPVKEDIEYVESIKNDVEWLGFHWSGNVRYSSDYFDQLHAYAIELINKGLAYVDELTPEQIREYRGTLTQPGKNSPYRDRSVEENLALFEKMRAGGFEEGKACLRAKIDMASPFIVMRDPVLYRIKFAEHHQTGNKWCIYPMYDFTHCISDALEGITHSLCTLEFQDNRRLYDWVLDNITIPVHPRQYEFSRLNLEYTVMSKRKLNLLVTDKHVEGWDDPRMPTISGLRRRGYTAASIREFCKRIGVTKQDNTIEMASLESCIREDLNENAPRAMAVIDPVKLVIENYQGEGEMVTMPNHPNKPEMGSRQVPFSGEIWIDRADFREEANKQYKRLVLGKEVRLRNAYVIKAERVEKDAEGNITTIFCTYDADTLSKDPADGRKVKGVPHWVSAAHALPVEIRLYDRLFSVPNPGAADDFLSVINPESLVIKQGFAEPSLKDAVAGKAFQFEREGYFCLDSRHSTAEKPVFNRTVGLRDTWAKVGE	0.401 ± 0.1	< 0.00772
gltX L28A (protein) MKIKTRFAPSPTGYLHVGGARTALYSWAFARNHGGEFVLRIEDTDLERSTPEAIEAIMDGMNWLSLEWDEGPYYQTKRFDRYNAVIDQMLEEGTAYKCYCSKERLEALREEQMAKGEKPRYDGRCRHSHEHHADDEPCVVRFANPQEGSVVFDDQIRGPIEFSNQELDDLIIRRTDGSPTYNFCVVVDDWDMEITHVIRGEDHINNTPRQINILKALKAPVPVYAHVSMINGDDGKKLSKRHGAVSVMQYRDDGYLPEALLNYLVRLGWSHGDQEIFTREEMIKYFTLNAVSKSASAFNTDKLLWLNHHYINALPPEYVATHLQWHIEQENIDTRNGPQLADLVKLLGERCKTLKEMAQSCRYFYEDFAEFDADAAKKHLRPVARQPLEVVRDKLAAITDWTAENVHHAIQATADELEVGMGKVGMPLRVAVTGAGQSPALDVTVHAIGKTRSIERINKALDFIAERENQQ	0.442 ± 0.043	0.00837 ± 0.01
gltX L28Q (protein) MKIKTRFAPSPTGYLHVGGARTALYSWQFARNHGGEFVLRIEDTDLERSTPEAIEAIMDGMNWLSLEWDEGPYYQTKRFDRYNAVIDQMLEEGTAYKCYCSKERLEALREEQMAKGEKPRYDGRCRHSHEHHADDEPCVVRFANPQEGSVVFDDQIRGPIEFSNQELDDLIIRRTDGSPTYNFCVVVDDWDMEITHVIRGEDHINNTPRQINILKALKAPVPVYAHVSMINGDDGKKLSKRHGAVSVMQYRDDGYLPEALLNYLVRLGWSHGDQEIFTREEMIKYFTLNAVSKSASAFNTDKLLWLNHHYINALPPEYVATHLQWHIEQENIDTRNGPQLADLVKLLGERCKTLKEMAQSCRYFYEDFAEFDADAAKKHLRPVARQPLEVVRDKLAAITDWTAENVHHAIQATADELEVGMGKVGMPLRVAVTGAGQSPALDVTVHAIGKTRSIERINKALDFIAERENQQ	0.356 ± 0.12	0.00364 ± 0.0029
gltX F183A (protein) MKIKTRFAPSPTGYLHVGGARTALYSWLFARNHGGEFVLRIEDTDLERSTPEAIEAIMDGMNWLSLEWDEGPYYQTKRFDRYNAVIDQMLEEGTAYKCYCSKERLEALREEQMAKGEKPRYDGRCRHSHEHHADDEPCVVRFANPQEGSVVFDDQIRGPIEFSNQELDDLIIRRTDGSPTYNACVVVDDWDMEITHVIRGEDHINNTPRQINILKALKAPVPVYAHVSMINGDDGKKLSKRHGAVSVMQYRDDGYLPEALLNYLVRLGWSHGDQEIFTREEMIKYFTLNAVSKSASAFNTDKLLWLNHHYINALPPEYVATHLQWHIEQENIDTRNGPQLADLVKLLGERCKTLKEMAQSCRYFYEDFAEFDADAAKKHLRPVARQPLEVVRDKLAAITDWTAENVHHAIQATADELEVGMGKVGMPLRVAVTGAGQSPALDVTVHAIGKTRSIERINKALDFIAERENQQ	0.414 ± 0.16	0.192 ± 0.27
gltX L28D (protein) MKIKTRFAPSPTGYLHVGGARTALYSWDFARNHGGEFVLRIEDTDLERSTPEAIEAIMDGMNWLSLEWDEGPYYQTKRFDRYNAVIDQMLEEGTAYKCYCSKERLEALREEQMAKGEKPRYDGRCRHSHEHHADDEPCVVRFANPQEGSVVFDDQIRGPIEFSNQELDDLIIRRTDGSPTYNFCVVVDDWDMEITHVIRGEDHINNTPRQINILKALKAPVPVYAHVSMINGDDGKKLSKRHGAVSVMQYRDDGYLPEALLNYLVRLGWSHGDQEIFTREEMIKYFTLNAVSKSASAFNTDKLLWLNHHYINALPPEYVATHLQWHIEQENIDTRNGPQLADLVKLLGERCKTLKEMAQSCRYFYEDFAEFDADAAKKHLRPVARQPLEVVRDKLAAITDWTAENVHHAIQATADELEVGMGKVGMPLRVAVTGAGQSPALDVTVHAIGKTRSIERINKALDFIAERENQQ	0.898 ± 0.1	0.00771 ± 0.001
gltX L28W (protein) MKIKTRFAPSPTGYLHVGGARTALYSWWFARNHGGEFVLRIEDTDLERSTPEAIEAIMDGMNWLSLEWDEGPYYQTKRFDRYNAVIDQMLEEGTAYKCYCSKERLEALREEQMAKGEKPRYDGRCRHSHEHHADDEPCVVRFANPQEGSVVFDDQIRGPIEFSNQELDDLIIRRTDGSPTYNFCVVVDDWDMEITHVIRGEDHINNTPRQINILKALKAPVPVYAHVSMINGDDGKKLSKRHGAVSVMQYRDDGYLPEALLNYLVRLGWSHGDQEIFTREEMIKYFTLNAVSKSASAFNTDKLLWLNHHYINALPPEYVATHLQWHIEQENIDTRNGPQLADLVKLLGERCKTLKEMAQSCRYFYEDFAEFDADAAKKHLRPVARQPLEVVRDKLAAITDWTAENVHHAIQATADELEVGMGKVGMPLRVAVTGAGQSPALDVTVHAIGKTRSIERINKALDFIAERENQQ	0.415 ± 0.22	0.00412 ± 0.0047
accA V195A (protein) MSLNFLDFEQPIAELEAKIDSLTAVSRQDEKLDINIDEEVHRLREKSVELTRKIFADLGAWQIAQLARHPQRPYTLDYVRLAFDEFDELAGDRAYADDKAIVGGIARLDGRPVMIIGHQKGRETKEKIRRNFGMPAPEGYRKALRLMQMAERFKMPIITFIDTPGAYPGVGAEERGQSEAIARNLREMSRLGVPAVCTVIGEGGSGGALAIGVGDKVNMLQYSTYSVISPEGCASILWKSADKAPLAAEAMGIIAPRLKELKLIDSIIPEPLGGAHRNPEAMAASLKAQLLADLADLDVLSTEDLKNRRYQRLMSYGYA	0.327 ± 0.19	0.00621 ± 0.0047
